The list shows a part of the results.
Legend:
Assay in all cases: glycan array binding signal (z-score within array); higher = stronger binding
Conditions in all cases: glycan notation: IUPAC condensed, linker removed; mutation: D325N
[1] = target: Neu5Ac(a2-3)Gal(b1-3)GalNAc(b1-3)Gal(a1-4)Gal(b1-4)Glc
Summary of the method: (§1)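 Columns mapping to the same glycan were averaged after glycan names were converted to IUPAC-condensed notation. The data come from 3228 arrays in the Consortium for Functional Glycomics database, limited to those with an available protein sequence. Binding is reported as a within-array Z-score averaged across arrays of one protein sequence and across linkers.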

[2] = target: Neu5Ac(a2-3)Gal(b1-3)GalNAc(b1-3)Gal(b1-4)GlcNAc
Summary of the method: as §1

[3] = target: Neu5Ac(a2-3)Gal(b1-3)GalNAc(b1-4)[Neu5Ac(a2-3)]Gal(b1-4)Glc
Summary of the method: as §1

[4] = target: Neu5Ac(a2-3)Gal(b1-3)GalNAc6S
Summary of the method: as §1

[5] = target: Neu5Ac(a2-3)Gal(b1-3)GlcNAc
Summary of the method: as §1

[6] = target: Neu5Ac(a2-3)Gal(b1-3)GlcNAc(b1-3)Gal(b1-3)GlcNAc
Summary of the method: as §1

[7] = target: Neu5Ac(a2-3)Gal(b1-3)GlcNAc6S
Summary of the method: as §1

[8] = target: Neu5Ac(a2-3)Gal(b1-3)[Fuc(a1-4)]GlcNAc
Summary of the method: as §1

[9] = target: Neu5Ac(a2-3)Gal(b1-3)[Fuc(a1-4)]GlcNAc(b1-3)Gal(b1-4)[Fuc(a1-3)]GlcNAc
Summary of the method: as §1

[10] = target: Neu5Ac(a2-3)Gal(b1-3)[Neu5Ac(a2-3)Gal(b1-4)]GlcNAc
Summary of the method: as §1

[11] = target: Neu5Ac(a2-3)Gal(b1-3)[Neu5Ac(a2-6)]GalNAc
Summary of the method: as §1

Neu5Ac(a2-3)Gal(b1-4)Glc = target: Neu5Ac(a2-3)Gal(b1-4)Glc
Summary of the method: as §1

[12] = target: Neu5Ac(a2-3)Gal(b1-4)GlcNAc
Summary of the method: as §1

[13] = target: Neu5Ac(a2-3)Gal(b1-4)GlcNAc(b1-2)Man(a1-3)[GlcNAc(b1-2)Man(b1-4)GlcNAc(b1-2)Man(a1-6)]Man(b1-4)GlcNAc(b1-4)GlcNAc
Summary of the method: as §1

[14] = target: Neu5Ac(a2-3)Gal(b1-4)GlcNAc(b1-2)Man(a1-3)[Neu5Ac(a2-6)Gal(b1-4)GlcNAc(b1-2)Man(a1-6)]Man(b1-4)GlcNAc(b1-4)GlcNAc
Summary of the method: as §1

[15] = target: Neu5Ac(a2-3)Gal(b1-4)GlcNAc(b1-3)Gal(b1-3)GlcNAc
Summary of the method: as §1

[16] = target: Neu5Ac(a2-3)Gal(b1-4)GlcNAc(b1-3)Gal(b1-4)GlcNAc
Summary of the method: as §1

[17] = target: Neu5Ac(a2-3)Gal(b1-4)GlcNAc(b1-3)Gal(b1-4)GlcNAc(b1-3)Gal(b1-4)GlcNAc
Summary of the method: as §1

[18] = target: Neu5Ac(a2-3)Gal(b1-4)GlcNAc(b1-3)Gal(b1-4)[Fuc(a1-3)]GlcNAc
Summary of the method: as §1

[19] = target: Neu5Ac(a2-3)Gal(b1-4)GlcNAc(b1-6)[Gal(b1-3)]GalNAc
Summary of the method: as §1

[20] = target: Neu5Ac(a2-3)Gal(b1-4)GlcNAc(b1-6)[Neu5Ac(a2-3)Gal(b1-3)]GalNAc
Summary of the method: as §1

[21] = target: Neu5Ac(a2-3)Gal(b1-4)GlcNAc6S
Summary of the method: as §1

[22] = target: Neu5Ac(a2-3)Gal(b1-4)[Fuc(a1-3)]GlcNAc
Summary of the method: as §1

[23] = target: Neu5Ac(a2-3)Gal(b1-4)[Fuc(a1-3)]GlcNAc(b1-3)Gal
Summary of the method: as §1

[24] = target: Neu5Ac(a2-3)Gal(b1-4)[Fuc(a1-3)]GlcNAc(b1-3)Gal(b1-4)GlcNAc
Summary of the method: as §1

[25] = target: Neu5Ac(a2-3)Gal(b1-4)[Fuc(a1-3)]GlcNAc(b1-3)Gal(b1-4)[Fuc(a1-3)]GlcNAc(b1-3)Gal(b1-4)[Fuc(a1-3)]GlcNAc
Summary of the method: as §1

[26] = target: Neu5Ac(a2-3)Gal(b1-4)[Fuc(a1-3)]GlcNAc(b1-6)[Gal(b1-3)]GalNAc
Summary of the method: as §1

[27] = target: Neu5Ac(a2-3)Gal(b1-4)[Fuc(a1-3)]GlcNAc6S
Summary of the method: as §1

[28] = target: Neu5Ac(a2-3)Gal6S(b1-4)GlcNAc
Summary of the method: as §1

[29] = target: Neu5Ac(a2-3)Gal6S(b1-4)[Fuc(a1-3)]GlcNAc
Summary of the method: as §1

Neu5Ac(a2-3)GalNAc = target: Neu5Ac(a2-3)GalNAc
Summary of the method: as §1

[30] = target: Neu5Ac(a2-3)GalNAc(b1-4)GlcNAc
Summary of the method: as §1

[31] = target: Neu5Ac(a2-3)[GalNAc(b1-4)]Gal(b1-4)Glc
Summary of the method: as §1

[32] = target: Neu5Ac(a2-3)[GalNAc(b1-4)]Gal(b1-4)GlcNAc
Summary of the method: as §1

[33] = target: Neu5Ac(a2-3)[Neu5Ac(a2-6)]GalNAc
Summary of the method: as §1

Neu5Ac(a2-6)Gal = target: Neu5Ac(a2-6)Gal
Summary of the method: as §1

Neu5Ac(a2-6)Gal(b1-4)Glc = target: Neu5Ac(a2-6)Gal(b1-4)Glc
Summary of the method: as §1

[34] = target: Neu5Ac(a2-6)Gal(b1-4)GlcNAc
Summary of the method: as §1

B1: Surfactant Protein D (Human); Neck + Carbohydrate Recognition Domain (NCRD) (Homo sapiens) (protein)
chain: MLLFLLSALVLLTQPLGYLEAEMKTYSHRTMPSACTLVMCSSVESGLPGRDRDGREGPRGEKGDPGLPGAAGQAGMPGQAGPVGPKGDNGSVGEPGPKGDTGPSGPPGPPGVPGPAGREGALGKQGNIGPQGKPGPKGEAGPKGEVGAPGMQGSAGARGLAGPKGERGVPGERGVPGNTGAAGSAGAMGPQGSPGARGPPGLKGDKGIPGDKGAKGESGLPDVASLRQQVEALQGQVQHLQAAFSQYKKVELFPNGQSVGEKIFKTAQFVKPFTEAQLLCTQAGGQLASPRSAAENAALQQLVVAKNEAAFLSMTDSKTEGKFTYPTGESLVYSNWAPGEPNDNGGSEDCVEIFTNGKWNDRACGEKRLVVCEF
glycan array binding signal (z-score) [1]: -0.132 | glycan array binding signal (z-score) [2]: -0.122 | glycan array binding signal (z-score) [3]: -0.132 | glycan array binding signal (z-score) [4]: -0.129 | glycan array binding signal (z-score) [5]: -0.127 | glycan array binding signal (z-score) [6]: -0.113 | glycan array binding signal (z-score) [7]: -0.148 | glycan array binding signal (z-score) [8]: -0.133 | glycan array binding signal (z-score) [9]: -0.111 | glycan array binding signal (z-score) [10]: -0.151 | glycan array binding signal (z-score) [11]: -0.14 | glycan array binding signal (z-score) (Neu5Ac(a2-3)Gal(b1-4)Glc): -0.151 | glycan array binding signal (z-score) [12]: -0.136 | glycan array binding signal (z-score) [13]: -0.063 | glycan array binding signal (z-score) [14]: -0.137 | glycan array binding signal (z-score) [15]: -0.126 | glycan array binding signal (z-score) [16]: -0.151 | glycan array binding signal (z-score) [17]: -0.151 | glycan array binding signal (z-score) [18]: -0.121 | glycan array binding signal (z-score) [19]: -0.145 | glycan array binding signal (z-score) [20]: -0.14 | glycan array binding signal (z-score) [21]: -0.132 | glycan array binding signal (z-score) [22]: -0.125 | glycan array binding signal (z-score) [23]: -0.132 | glycan array binding signal (z-score) [24]: -0.114 | glycan array binding signal (z-score) [25]: -0.125 | glycan array binding signal (z-score) [26]: -0.073 | glycan array binding signal (z-score) [27]: -0.141 | glycan array binding signal (z-score) [28]: -0.153 | glycan array binding signal (z-score) [29]: -0.136 | glycan array binding signal (z-score) (Neu5Ac(a2-3)GalNAc): -0.146 | glycan array binding signal (z-score) [30]: -0.148 | glycan array binding signal (z-score) [31]: -0.132 | glycan array binding signal (z-score) [32]: -0.12 | glycan array binding signal (z-score) [33]: -0.158 | glycan array binding signal (z-score) (Neu5Ac(a2-6)Gal): -0.148 | glycan array binding signal (z-score) (Neu5Ac(a2-6)Gal(b1-4)Glc): -0.153 | glycan array binding signal (z-score) [34]: -0.153

Source: the supplement of paper PMC8728848
